From PubChem BioAssay AID1347417 (National Center for Advancing Translational Sciences (NCATS), 2020)
Hit rate of the full screen: of about 120,000 compounds, about 5,300 (4.4%) were called active. The shares of active, inactive and inconclusive entries below differ from those in the screen. The call rests on the fitted dose curve; in most records, active means well fitted inhibition curve with a large enough effect; inconclusive means small, poorly fitted or top-dose-only effect; inactive means no such curve, though single readings can be large or run the other way. Potencies beside an inconclusive call are fits to weak or partial responses and may not hold up.

test: qHTS Primary assay for Inhibitors of Plasmodium falciparum Dd2 growth in vitro; further: nearly all actives have a fitted effect of over 65% in size; details: P. falciparum Dd2 growth, SYBR Green, 72 h; series mostly up to 28.9 µM
Method in brief: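 Infected erythrocytes (Dd2, 0.3% parasitemia, 2.5% hematocrit final) are added to compound in RPMI-1640/Albumax II medium, grown 72 h at 37C in low oxygen, then lysed with saponin/Triton-X containing SYBR Green and read by fluorescence.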
Potency means the concentration at half of the fitted maximal effect; tags describe the fitted curve by direction and shape.

SMILES	Potency
Cc1ccc(CNC(=O)CN2C(=O)COc3ccc(S(=O)(=O)Nc4ccccc4)cc32)cc1	inactive
COc1ccc(C(=O)N2CCC3(CC2)OC(=O)N(Cc2ccc(O)cc2)C3(C)c2ccccc2)cn1 (centres undefined)	inconclusive: 0.891 µM [inhibitor, full curve, poor fit]
CCc1ccccc1OCC(=O)c1ccc2c(c1)N(CC(=O)Nc1ccc(F)cc1)C(=O)CO2	inactive
COc1ccc(-c2nc(SCC(=O)Nc3ccc4c(c3)OCCO4)c(-c3ccc(C)cc3)[nH]2)cc1OC	inconclusive: 11.2 µM [inhibitor, single point]
Cc1ccccc1Nc1c(-c2ccc(N3CCOCC3)cc2)nc2ccccn12	inconclusive: 8.91 µM [inhibitor, partial curve]
COc1ccc(NC(=O)CN(c2cc(C)cc(C)c2)S(=O)(=O)c2c(C)noc2C)cc1Cl	inconclusive: 17.8 µM [inhibitor, single point]
CC(C)(C)c1ccc(C(=O)N2C[C@@H](CO)[C@H](c3ccncc3)C2)cc1	inconclusive: 20 µM [inhibitor, single point]
CN(c1cc(=O)c2ccnc(NCc3ccc4c(c3)OCO4)c2o1)C1CCOCC1	inconclusive: 35.5 µM [inhibitor, single point]
COc1ccc(-c2nccn2CC(CO)Cc2ccsc2)cc1O (centres undefined)	inconclusive: 12.6 µM [inhibitor, single point]
Cc1noc(C)c1-c1cc(-c2cccc(CO)c2)cn2cncc12	inconclusive: 10 µM [inhibitor, partial curve, poor fit]
CN(C)c1ccc(C(=O)NC2CCCN(c3cc(-c4ccccc4)[nH]n3)C2)cc1 (centres undefined)	inconclusive: 3.55 µM [inhibitor, single point]
CCCc1sc(NC(=O)C[C@H]2NC(=O)c3ccccc3NC2=O)nc1C(=O)OC	inconclusive: 12.6 µM [inhibitor, partial curve, poor fit]
c1ccc(CC2=NOC3(CCN(C4COC4)CC3)C2)cc1	inactive
Cc1[nH]cnc1-c1nccn1CCCNc1cccnc1	inactive
CC(=O)c1ccc(NC(=O)c2cc3sccc3n2Cc2ccc(F)cc2)cc1	inactive
Cc1cc(C)cc(NC(=O)c2cc(CN3CCCC3)on2)c1	inconclusive: 20 µM [inhibitor, single point]
Cc1nn2c(c1-c1ccccc1-c1ccccc1)N(C(=O)c1cnccn1)CCC2	inactive
CCN1CCN(CC(O)COc2cccc(CNC3(c4ccccc4)CC3)c2)CC1 (centres undefined)	inconclusive: 10 µM [inhibitor, single point]
CC(C)CN1CCN(C(=O)C2CCCN(S(=O)(=O)c3cn(C)cn3)CCC(=O)NCC2)CC1 (centres undefined)	inactive
Cc1cn2nc(C(=O)Nc3ccc(Cl)cc3)cc2c(N(C)Cc2ccccc2)n1	inconclusive: 7.08 µM [inhibitor, partial curve, poor fit]
CCCc1ccc(S(=O)(=O)N(C)CC2CCOC2)cc1 (centres undefined)	inconclusive: 11.2 µM [inhibitor, single point]
CCc1[nH]nc(C(=O)N2CCC3(CC2)C(=O)NCCN3C)c1C	inactive
O=C(NC[C@H]1OC[C@@H](NCc2ncc[nH]2)[C@@H]1O)Nc1ccccc1	inactive

SMILES	Potency
O=C(NC1CCCN(c2cc(-c3ccc(F)cc3)[nH]n2)C1)C1CCCC1 (centres undefined)	inactive
COc1ccc(NC(=O)CSc2nc(-c3ccc(F)cc3)[nH]c2-c2ccc(C)cc2)cc1OC	inconclusive: 10 µM [inhibitor, single point]
COc1cccc(Nc2ncc(-c3cccnc3)c3c2OCC3)c1	inconclusive: 25.1 µM [inhibitor, single point]
CCN1C(=O)C2(CCN(S(=O)(=O)c3c(C)nn(C)c3C)CC2)c2ccccc21	inconclusive: 10 µM [inhibitor, partial curve, poor fit]
COc1cccc(CN2CCC(Cc3ncc(C)n3Cc3ccccc3)C2)c1 (centres undefined)	inconclusive: 10 µM [inhibitor, partial curve, poor fit]
CN(C)C[C@H]1O[C@@H](CO)[C@@H](O)[C@H]1N(C)CCc1ccccn1	inactive
CCc1ccc(CNC(=O)c2cc3n(n2)CC(c2ccc(Cl)cc2)OC3)cc1 (centres undefined)	inactive
COCc1nnc2n1CCC(NC(=O)CCn1cccn1)CC2 (centres undefined)	inactive
Cc1ccc(-n2c(C3CCN(C(=O)c4cc(-c5ccc(F)cc5)n[nH]4)CC3)n[nH]c2=O)cc1	inconclusive: 11.2 µM [inhibitor, single point]
COc1ccc([C@H]2C[C@@H](O)[C@@H](O)[C@@H]2NC(=O)C2CCC2)cc1	inactive
CN1CCN(Cc2nc(C3(O)CCNCC3)cs2)CC1	inactive
COc1ccc(CCN2C(=O)c3[nH]nc(-c4ccccc4O)c3C2c2ccc(OC)cc2)cc1 (centres undefined)	active: 10 µM
O=C1NCCCCCCN[C@H]2C[C@H](c3nc(Cc4ccccc4)no3)C[C@@H]12	inconclusive: 1.58 µM [inhibitor, partial curve, poor fit]
COc1ccc(CC(=O)Nc2ccc3n(c2=O)C[C@H]2C[C@@H]3CN(C(=O)c3ccc4ccccc4c3)C2)cc1	inactive
Cn1c(CO[C@H]2CN(Cc3ccncc3F)C[C@H]2F)nc2ccccc21	inactive
COc1ccc(-c2nc(Cn3c(-c4ccccc4)nc(C)c(CCO)c3=O)c(C)o2)cc1	inconclusive: 17.8 µM [inhibitor, single point]
CN1CCc2c(sc(NC(=O)CSc3ccccc3)c2-c2nc3ccccc3s2)C1	active: 11.2 µM
CCCOC(=O)c1c(NC(=O)C(C)Sc2nc(-c3ccccc3)cc(C(F)(F)F)n2)sc(C(=O)N(C)C)c1C (centres undefined)	active: 1.12 µM
CN1C(=O)Cc2ccccc2C1C(=O)NCc1ccccc1 (centres undefined)	inactive
COc1ccccc1C(=O)NCC(c1cccnc1)N1CCc2ccccc2C1 (centres undefined)	inconclusive: 17.8 µM [inhibitor, single point]
CC(=O)Nc1ccc(CN2CCc3nc(C(C)C)nc(-c4ccc(Cl)cc4)c3CC2)cc1	active: 1.12 µM
COc1cc(NC(=O)N2c3ccccc3Sc3ccccc32)cc(OC)c1	inconclusive: 8.91 µM [inhibitor, partial curve]
CCCN1CCCC12Cc1ccccc1CN(C(=O)C(C)C)C2 (centres undefined)	active: 8.91 µM

SMILES	Potency
Cc1ccc(NC(=O)N2CCC(CCN)CC2)cc1F	inactive
CC(C)(C)CC(=O)NCC(c1ccc2c(c1)OCO2)N1CCN(c2ccccc2)CC1 (centres undefined)	active: 7.08 µM
Cc1ccc(-c2noc([C@@H]3Cc4nc[nH]c4CN3Cc3ccccc3)n2)cc1	active: 10 µM
O=C(NCc1cccc(Br)c1)c1cnn(-c2ccc(F)cc2)c1-n1cccc1	inconclusive: 17.8 µM [inhibitor, single point]
CCC(C)NC(=O)Cn1c(=O)n(CCCCCC(=O)NCc2ccccc2Cl)c(=O)c2sccc21 (centres undefined)	inconclusive: 10 µM [inhibitor, single point]
Cn1cc(CN2CCCC23CCN(c2ccc(C(F)(F)F)cn2)CC3)cc1C#N	active: 5.01 µM
CC#CCn1cc2c3c(cccc31)[C@H](CC(C)C)N[C@H](C(=O)NC1CCCC1)C2	inconclusive: 2.24 µM [inhibitor, full curve, poor fit]
COc1cccc(-c2cc3c(=O)n(CCNC(=O)c4cccc(Cl)c4)ccn3n2)c1	inconclusive: 2.82 µM [inhibitor, partial curve, poor fit]
Cc1ccc(S(=O)(=O)n2nc(-c3ccccc3)nc2NCc2ccc(Cl)cc2)cc1	inconclusive: 8.91 µM [inhibitor, single point]
O=C(CSc1nc2c([nH]c3ccccc32)c(=O)n1-c1ccccc1)N1CCc2ccccc21	inconclusive: 10 µM [inhibitor, single point]
O=c1cc(-c2ccncc2)oc2c(-c3ccc(CO)cc3)nccc12	inconclusive: 11.2 µM [inhibitor, partial curve, poor fit]
O=C(N[C@H]1CCOC[C@H]1C1CCOCC1)c1ccccc1-c1ccccc1	inconclusive: 0.501 µM [inhibitor, full curve]
CCCN(CCC)CCCNC(=O)c1cc2c(-c3ccc(OC)c(OC)c3)nn(C)c2s1	inconclusive: 3.98 µM [inhibitor, single point]
CCc1ccc(NC(=O)[C@H](Cc2ccccc2)N2Cc3ccccc3C2=O)cc1	inactive
CN(C)CCNC(=O)C1CCN(Cc2cc3ccccc3n2Cc2ccccc2)CC1	active: 6.31 µM
COc1ccccc1-c1cc(C(=O)NCc2cnn(C)c2)c2c(c1)N(C)CCO2	inconclusive: 31.6 µM [inhibitor, single point]
O=C(c1ccc(Cl)cc1)N1CC2(CCN(C3COC3)C2)Cc2ccccc21 (centres undefined)	inactive
O=C(c1nc(-c2ccc(Cl)nc2)c2ccccn12)N1CCCC1	inconclusive: 12.6 µM [inhibitor, single point]
CCc1ccc(S(=O)(=O)N2CCC(OC3CCN(Cc4ccccc4)CC3)CC2)cc1	inconclusive: 3.98 µM [inhibitor, single point]
Cc1noc2c(NC3CCN(C)CC3)cc(-c3cccc(C(F)(F)F)c3)nc12	inconclusive: 2 µM [inhibitor, full curve, poor fit]
COc1ccccc1C(=O)NCCn1ccn2nc(-c3ccc(C)cc3C)cc2c1=O	inconclusive: 12.6 µM [inhibitor, single point]
COCC(=O)N1CCN2C(=O)N(CC(N)=O)C(=O)[C@@H]2C1	inactive
O=C(c1ccsc1)N1CCC2(CC1)CN(C1CCC1)CC2CO (centres undefined)	inactive
